Laboratory results as given in the supplement of paper PMC10441789.
Some of the results follow. Antibody binding of pooled human sera (four to six donors per pool; dilution not stated) to peptides of the Trypanosoma cruzi antigen TSSA on microarrays. Quantile-normalised fluorescence in arbitrary units, mean of duplicate arrays; higher = more binding. No active / inactive call. The uninfected pools are read here as the healthy donors of the same country. The strongest signals lie near the top of the scale (about 60,000).

System: pooled sera of chronic Chagas disease patients, Argentina
Test: antibody binding signal (normalised fluorescence) (arbitrary fluorescence units); higher = stronger serum antibody binding to peptide
Description: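 Microarray of 15-residue peptides over residues 30-55 of Trypanosoma cruzi TSSAII, each with 1 to 10 substitutions at naturally variable positions, probed with one serum pool per country.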

Sequence	antibody binding signal
NKAATGETPSQSGAS	3030
STPPSGKENKPAAGG	27700
ENKPATGGAPSQSGA	1400
GKDKKPATGEAPSPP	42100
TEKKPAAGGTPSQPG	1030
GTEKKTATGGAPSQS	1480
KKTAAGGAPSPSGAS	209
PPSGKEKKPAAGETP	1180
TENKTATGEAPSPPG	26000
GTENKPATGGAPSQP	45700
GTDKKTATGEAPSQP	13100
KTAAGEAPSQPGASS	6650
KENKTATGETPSQPG	1770
GTEKKPAAGETPSQP	3020
KEKKAAAGEAPSQPG	2640
NKAATGGTPSQPGAS	467
KDKKAATGETPSPSG	390
SGTDKKTATGETPSQ	582
TEKKAAAGEAPSPPG	1420
EKKPAAGGAPSQPGA	925

Sequence	antibody binding signal
KKAATGEAPSPPGAS	5950
GKENKAATGETPSPS	14700
GTEKKPAAGEAPSQP	8440
DNKPAAGGAPSQPGA	258
TENKPATGGAPSPPG	43400
KAAAGGAPSQSGASS	221
KKPAAGGAPSPSGAS	170
EKKTAAGGTPSQSGA	954
ISTPPSGTENKTAAG	53400
KDNKAATGGAPSQSG	330
DNKAAAGETPSPSGA	391
GKENKTATGETPSPP	9800
KDKKAAAGGAPSPSG	221
KPATGETPSQPGASS	27700
SGTEKKAAAGETPSP	495
KKAAAGETPSQPGAS	249
EKKPAAGGAPSPSGA	1470
GKDKKPATGGAPSPS	868
SGKEKKTAAGGAPSQ	2630
PSGKENKPAAGGAPS	9400
